Results from the BET-seq Pho4 binding data (Le et al. 2018).
The other results are listed elsewhere or left out. The energies were worked out here from pooled read counts, against the library average; single values are noisy.

Biological target: T1, Pho4 (S. cerevisiae) (UniProt P07270)
T1 sequence: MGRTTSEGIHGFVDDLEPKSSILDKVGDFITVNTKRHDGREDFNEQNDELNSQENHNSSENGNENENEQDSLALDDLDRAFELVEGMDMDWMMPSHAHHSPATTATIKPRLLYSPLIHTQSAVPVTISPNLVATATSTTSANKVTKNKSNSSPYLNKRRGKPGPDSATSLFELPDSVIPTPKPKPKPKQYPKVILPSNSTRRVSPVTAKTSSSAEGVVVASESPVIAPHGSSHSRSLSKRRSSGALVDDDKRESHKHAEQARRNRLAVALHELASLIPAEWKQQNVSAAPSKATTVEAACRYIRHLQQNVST
Assay: relative binding free energy (BET-seq); higher = weaker binding
Conditions: reference: library average

| Sequence | relative binding free energy |
| --- | --- |
| GGACTCACGTGGTATT | 0.418 kJ/mol |
| TGTATCACGTGGAGCG | 0.586 kJ/mol |
| CTGGACACGTGGTTAT | 0.0837 kJ/mol |
| CGTTTCACGTGGGCGT | 1.21 kJ/mol |
| GCCGGCACGTGTTGGG | 0.0837 kJ/mol |
| GTTCACACGTGAGTGG | 1.09 kJ/mol |
| TTGAACACGTGTATCG | 0.586 kJ/mol |
| TAGTGCACGTGTACCG | 0.377 kJ/mol |
| CTAGACACGTGATGGG | 0.92 kJ/mol |
| AAGGGCACGTGGTTAT | -0.879 kJ/mol |
| CTTGGCACGTGTTTTA | -0.418 kJ/mol |
| GGTGTCACGTGGTTAG | 0.293 kJ/mol |
| ATCATCACGTGTGGGG | 0.544 kJ/mol |
| TGTATCACGTGTTCGC | 0.795 kJ/mol |
| CACTGCACGTGGGGGG | -1.21 kJ/mol |
| TTGGTCACGTGTTTGA | 0.377 kJ/mol |
| GGTTGCACGTGATGTT | 1 kJ/mol |
| TAAGTCACGTGATAGT | 0.753 kJ/mol |
| GGTTTCACGTGGCGAG | 1.42 kJ/mol |
| GTATTCACGTGGTGCT | 0.837 kJ/mol |
| TTTTGCACGTGATGAC | 0.711 kJ/mol |
| GTTAACACGTGTTTTG | 0.418 kJ/mol |
| CGTGTCACGTGTGGAA | 0.46 kJ/mol |

| Sequence | relative binding free energy |
| --- | --- |
| GTGCTCACGTGGAAGG | 1.72 kJ/mol |
| TTAGTCACGTGCGTAT | -0.167 kJ/mol |
| ATGGACACGTGTAATG | 0.46 kJ/mol |
| GGTAGCACGTGGTGCT | -0.753 kJ/mol |
| TACGTCACGTGTAATG | 0.377 kJ/mol |
| GTGTTCACGTGTCGAA | 1.51 kJ/mol |
| TACTTCACGTGGTGTG | 0.795 kJ/mol |
| CGTGGCACGTGGCTGA | -0.628 kJ/mol |
| TGTAGCACGTGGCGGG | -0.669 kJ/mol |
| ATTGTCACGTGCGTTG | -0.209 kJ/mol |
| CATATCACGTGTTAGG | 0.586 kJ/mol |
| TTGTTCACGTGGACGT | 0.837 kJ/mol |
| GTGTGCACGTGAACAT | 1.05 kJ/mol |
| GTCAACACGTGTTTGG | -0.0837 kJ/mol |
| GATTACACGTGTCGTG | 0.879 kJ/mol |
| TCGGGCACGTGGTCAT | -0.795 kJ/mol |
| GTGGGCACGTGCATAG | -0.962 kJ/mol |
| GCGGGCACGTGGGTGT | -1.05 kJ/mol |
| TACGTCACGTGGAGTG | 0.126 kJ/mol |
| TGGGTCACGTGGCAAA | -0.0418 kJ/mol |
| TTCAGCACGTGAGATA | 1.17 kJ/mol |
| TTAAGCACGTGAGTAA | 0.628 kJ/mol |
| GGGTACACGTGAATTG | 1.63 kJ/mol |

| Sequence | relative binding free energy |
| --- | --- |
| GCGGTCACGTGAGGTC | 1.13 kJ/mol |
| AATAGCACGTGTGAGT | -0.126 kJ/mol |
| TGAAACACGTGGCGTT | -0.0418 kJ/mol |
| ATGCACACGTGGTTTT | 0.251 kJ/mol |
| TAGCGCACGTGGTGGT | -1 kJ/mol |
| TTAGGCACGTGATATT | -0.0837 kJ/mol |
| GGAAGCACGTGCTAGG | -0.669 kJ/mol |
| AATGTCACGTGAACGG | 0.753 kJ/mol |
| GGTTTCACGTGGCAGG | 1.34 kJ/mol |
| TATAGCACGTGAAAGT | 0.753 kJ/mol |
| AATGACACGTGGTTTA | -0.209 kJ/mol |
| CTTGACACGTGGTAGT | -0.126 kJ/mol |
| TTTTACACGTGTAAAT | 0.753 kJ/mol |
| GGTGCCACGTGGCTGG | -0.962 kJ/mol |
| GGATGCACGTGTTGAG | -0.418 kJ/mol |
| TGTTACACGTGGTTTA | 0.167 kJ/mol |
| TATTTCACGTGGGTCG | 0.795 kJ/mol |
| TGACACACGTGGATTT | 0.753 kJ/mol |
| TTTGGCACGTGGCGCA | -0.586 kJ/mol |
| ATTTTCACGTGCGGTG | 1.34 kJ/mol |
| GTTTGCACGTGCTTGG | 0.293 kJ/mol |
| CTTTTCACGTGAGAGG | 1.59 kJ/mol |
| AGGTGCACGTGTATAT | 0.46 kJ/mol |

| Sequence | relative binding free energy |
| --- | --- |
| GCTGGCACGTGATGTG | -0.418 kJ/mol |
| GGACTCACGTGTGTGC | 1.46 kJ/mol |
| TTTAACACGTGTATTC | 0.0837 kJ/mol |
| AAGAGCACGTGGTAAG | -0.711 kJ/mol |
| TTCAACACGTGGGGGA | -0.795 kJ/mol |
| CGTTACACGTGGTGGG | -0.0418 kJ/mol |
| GATTACACGTGAGGTG | 1.97 kJ/mol |
| TGGATCACGTGGGAGT | 0.0837 kJ/mol |
| TGATACACGTGGAAGG | 1 kJ/mol |
| CCTTTCACGTGGAGGT | 1 kJ/mol |
| TAAGTCACGTGTTTGG | 0.418 kJ/mol |
| TGGTTCACGTGCTTCT | 0.711 kJ/mol |
| CGGAGCACGTGTAGGG | -0.251 kJ/mol |
| GGGATCACGTGATAAG | 1.55 kJ/mol |
| TTGGGCACGTGATGCG | -0.0418 kJ/mol |
| CGATACACGTGTGAGT | 0.92 kJ/mol |
| ACTGTCACGTGTGCTG | 0.335 kJ/mol |
| GGGGGCACGTGACGTA | -0.0418 kJ/mol |
| AGTAACACGTGGGCGT | -0.795 kJ/mol |
| AATATCACGTGTATTG | -0.209 kJ/mol |
| GTAGTCACGTGTGCTG | 0.377 kJ/mol |
| GTTCGCACGTGATGGG | 0.502 kJ/mol |
| CATATCACGTGAGGTT | 0.711 kJ/mol |

| Sequence | relative binding free energy |
| --- | --- |
| CGTAGCACGTGTGTTG | -0.209 kJ/mol |
| TTTTGCACGTGACTTT | -0.0418 kJ/mol |
| GGTTACACGTGTTGCA | 0.628 kJ/mol |
| ATTGACACGTGTTTCG | 0.126 kJ/mol |
| GTAGGCACGTGGGGCA | -0.586 kJ/mol |
| GCGGACACGTGGGGAG | -0.0837 kJ/mol |
| GATGTCACGTGGGGGC | 0.502 kJ/mol |
| TGATGCACGTGCAGGA | -0.209 kJ/mol |
| GAGGTCACGTGTCGTA | 0.879 kJ/mol |
| TTTTTCACGTGTAAAA | 1.13 kJ/mol |
| TGATGCACGTGAGTTT | 1.17 kJ/mol |
| GTCTACACGTGGTGGG | 0.628 kJ/mol |
| AGCGTCACGTGAGAGT | 1.05 kJ/mol |
| TCCGGCACGTGTAGGG | -0.335 kJ/mol |
| TTGCTCACGTGAGTGA | 1.17 kJ/mol |
| TCGTACACGTGTTGGA | 0.46 kJ/mol |
| AATTTCACGTGGTTCA | 1.3 kJ/mol |
| AGTAGCACGTGGGACG | -0.544 kJ/mol |
| TTTTACACGTGGTGCC | -0.126 kJ/mol |
| TGCTACACGTGGGGAA | 0.0418 kJ/mol |
| CTTGCCACGTGGGTTA | -1 kJ/mol |
| GTTTCCACGTGTCGTT | 0.586 kJ/mol |
| TGTTGCACGTGCTCGG | -0.92 kJ/mol |
